# Measured values published in the supplement of paper PMC12217912.
# The list shows a part of the results. Sequences were assembled here from the parent chain. Inactive controls read about 0.05.
# B1: TEV protease; numbered along this chain (parent)
# chain: MGESLFKGPRDYNPISSSICHLTNESDGHTTSLYGIGFGPFIITNKHLFRRNNGTLVVQSLHGVFKVKDTTTLQQHLVDGRDMIIIRMPKDFPPFPQKLKFREPQREERICLVTTNFQTKSMSSMVSDTSCTFPSGDGIFWKHWIQTKDGQCGSPLVSTRDGFIVGIHSASNFTNTNNYFTSVPKNFMELLTNQEAQQWVSGWRLNADSVLWGGHKVFMVKPEEPFQPVKEATQL
# Variants of: B1
# Assay: raw area under fraction-flipped curve 0-4 h after induction (AUC4h, not background-subtracted), DNA-recorder readout of cleavage of the substrate (dimensionless); higher = more cleavage of the substrate by the protease variant
# Conditions: temperature: 34 °C; time window: 0-4 h after rhamnose induction
# Procedure: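 In vivo DNA recorder in E. coli TOP10(DE3) ΔrhaA at 34 °C. Each TEVp single-site mutant (parent TEVp 0) is paired with a single-site variant of the 7-mer TEVs (canonical ENLYFQ|S). The substrate sits between flexible linkers in a Bxb1-sfGFP-TEVs-SsrA fusion, so cleavage stabilises Bxb1 and speeds flipping of a recombination array, read by NGS. The value is the raw area under the fraction-flipped curve over 0-4 h after rhamnose induction (AUC4h), with ≥20 reads per time point. It is not background-subtracted; inactive controls average about 0.047.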
# 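Note: Bxb1 expression induced with 0.2% (w/v) L-rhamnose at OD600 near 0.5, cultures sampled hourly, flipped fraction per protease–substrate barcode pair counted by paired-end Illumina sequencing.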
Variant,area with substrate ANLYFQS,area with substrate FNLYFQS,area with substrate GNLYFQS,area with substrate HNLYFQS,area with substrate KNLYFQS,area with substrate LNLYFQS,area with substrate MNLYFQS,area with substrate PNLYFQS,area with substrate WNLYFQS,area with substrate YNLYFQS
R51I,0.0605,0.0597,0.0601,0.0651,0.0513,0.062,0.0691,0.0639,0.0544,0.0472
L5D,0.0593,,,0.0509,,0.0797,0.0634,0.0602,0.0545,
P9Q,0.0636,,0.0975,0.0644,0.0687,0.0808,,0.0795,0.0581,0.0594
A207M,0.0623,0.0575,0.0618,0.0546,,,,,0.0356,
T119F,0.0662,,,0.0649,0.0748,0.0735,,0.0704,,0.0628
G202C,0.0585,,0.0605,0.0568,0.0499,,0.0639,0.057,0.0574,
D137P,0.0521,,,,,0.0922,,,0.0441,
I145R,0.0571,,,,0.0588,,0.0547,,0.0426,0.0411
P134T,0.0704,,0.0638,,,0.0591,0.0759,0.0522,,
L33K,0.0268,,,0.0492,0.0667,,0.0524,0.0685,0.0566,0.0521
F163H,0.0769,0.0633,,0.0597,,,,0.061,,
G138R,0.0611,,,0.0662,,,,0.078,0.0466,
G35K,0.0499,,,,,,,0.0259,,
R81H,0.0681,,0.0705,0.0843,0.0542,0.0757,,,0.0624,0.0487
P222W,0.0676,0.0537,,0.0511,0.0544,0.0627,0.058,0.0561,0.0476,0.0555
K46N,0.0675,,0.0507,0.0876,0.0607,,0.0587,,0.0491,0.0661
S18T,0.0748,0.0617,0.0833,0.0844,0.0704,0.0606,,0.0712,0.0633,0.0545
E3Y,0.0489,,0.0584,0.0782,,0.0878,,0.0504,0.072,
E231W,0.0649,,,0.0647,0.082,0.0626,,0.0534,0.0564,0.0669

Variant,area with substrate ANLYFQS,area with substrate FNLYFQS,area with substrate GNLYFQS,area with substrate HNLYFQS,area with substrate KNLYFQS,area with substrate LNLYFQS,area with substrate MNLYFQS,area with substrate PNLYFQS,area with substrate WNLYFQS,area with substrate YNLYFQS
N177Y,0.0769,0.079,0.0807,0.074,,,,0.0575,0.0685,0.0569
F101W,0.0699,0.0623,,0.0653,,0.0696,,0.0523,0.0478,0.0483
G214S,0.0614,,,,0.0656,0.0561,,,0.0688,0.0518
N116C,0.0621,,,0.0417,,,,0.0481,0.0404,
F95M,0.0722,0.0653,0.0693,,,0.0254,,,,0.0821
K68R,0.0395,,,,0.057,0.0566,,0.0553,0.0586,0.0573
S209P,0.077,0.0478,,,0.0582,,0.058,0.0568,0.0595,
A232L,0.0499,0.0639,0.0739,0.0635,0.0707,0.0643,0.0623,0.0668,0.0665,0.0644
M83F,0.0502,0.0565,0.0574,0.0613,0.156,,,0.0603,0.071,
T119E,0.0758,0.0402,0.0638,,,,,,,
Q75N,0.0527,,,,0.0637,0.0703,,,0.0625,
S60T,0.0838,0.0987,,,0.0528,,0.0798,0.0682,0.0679,0.0707
F117L,0.0949,,0.0737,0.0556,0.136,,,,0.0592,0.071
Y179M,0.0559,,,0.0555,0.0646,0.0648,,0.0376,,
F95Y,0.0484,,,0.0667,,,,,0.0587,
H29F,0.0714,,,,,0.0609,0.0838,,0.0602,0.0641
I36P,0.0487,0.031,,0.0412,,,,0.0389,0.0415,0.0369
R102Y,0.039,,,,,,,0.0543,,
D69G,0.0556,,,,,0.0493,0.0687,,,

# Same assay, conditions: temperature: 34 °C; time window: 0-4 h after rhamnose induction
Variant,area with substrate SNLYFQS,area with substrate TNLYFQS,area with substrate INLYFQS,area with substrate VNLYFQS,area with substrate QNLYFQS,area with substrate NNLYFQS,area with substrate RNLYFQS,area with substrate DNLYFQS
L5D,0.075,0.0332,,,,,,
P9Q,,0.0669,0.0791,0.0709,,,,
A207M,,,0.059,,0.0672,,,
T119F,,0.0716,,,,0.132,0.0671,
G202C,0.0617,0.0586,,,,0.0641,,
D137P,,,0.056,0.0754,0.0722,,,0.0986
I145R,0.0574,0.0535,,,,0.0637,0.035,
P134T,0.0722,,0.0534,,,0.0739,,
L33K,0.0507,0.0583,0.0621,0.0571,,,,
F163H,0.0747,0.0681,,,,0.0596,,
G138R,,0.039,,,,0.0353,,0.0726
G35K,0.0432,,,,,,,0.0341
R81H,0.0541,0.0592,0.0657,,,0.0474,,
P222W,,0.0595,0.066,0.0776,0.0865,0.069,,
K46N,0.0589,0.0513,,,,,,
S18T,0.0704,,,,,0.0533,0.047,
E3Y,0.0666,,0.0769,0.0981,,0.0766,,
E231W,0.0567,0.0676,,,,,,
N177Y,,,,,,0.059,,

Variant,area with substrate SNLYFQS,area with substrate TNLYFQS,area with substrate INLYFQS,area with substrate VNLYFQS,area with substrate QNLYFQS,area with substrate NNLYFQS,area with substrate RNLYFQS,area with substrate DNLYFQS
F101W,,0.078,0.0598,,0.0665,0.0754,,
G214S,0.0489,0.0439,0.0532,,,,,
N116C,,,,0.0638,,,,
F95M,,,,,0.0625,,,
K68R,0.0686,0.0754,0.0646,0.078,,,,
S209P,0.0721,0.058,,,0.0542,,,
A232L,,,0.0701,,,,,
M83F,,,,,0.0591,0.0543,,0.0745
T119E,,,,0.0745,,0.0527,,
Q75N,,0.0503,,,,0.0574,,
S60T,0.0773,0.0794,0.0783,,0.103,0.0517,,
F117L,0.0671,0.0597,0.0621,0.075,,0.0665,,
Y179M,0.0681,0.0546,,0.0244,,,,
F95Y,0.0684,0.0742,,,,,0.0582,
H29F,,0.0808,0.0678,,,0.0713,0.0431,
I36P,0.0425,0.0368,,,,,,
R102Y,,,0.0345,0.0212,,0.0695,,
D69G,,0.0529,,,,,0.048,
